Test results published in PubChem BioAssay AID493208 (National Center for Advancing Translational Sciences (NCATS), 2011).
About 340 (0.77%) of roughly 44,000 compounds were called active. About 5% were inconclusive and are not listed. Calls follow the shape of the dose curve; as a rule, active = well fitted inhibition curve with a large enough effect; inconclusive = small, poorly fitted or top-dose-only effect; inactive = flat fitted curve, though single readings scatter. Some of the results follow.

Assay: Acumen qHTS Assay for Inhibitors of the mTORC1 Signaling Pathway in MEF (Tsc2-/-, p53-/-) Cells: Sytravon;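 also: plate controls were DMSO for no effect and rapamycin for full effect; nearly all actives have a fitted effect of over 50% in size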
Details: phospho-rpS6 immunofluorescence/PI, 24 h; series mostly up to 38.3 µM; activity change, negative = inhibition: at the top concentration
Summary of the method: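 Plate MEFs (Tsc2-/-, p53-/-, empty vector) in DMEM/10% FBS; after 24 h add compound, incubate 24 h at 37 degree Celsius; fix in PFA/TX-100, block, stain phospho-rpS6 and 10 uM PI; scan at 488 nm; report % positive cells.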

Activity change, negative = inhibition, inactive:
Cc1nc2ccn(Cc3ccccc3)c(=O)c2cc1C(=O)N1CCN(c2ccccc2F)CC1 1.7%
CCOc1ccccc1C(=O)NC1(C(F)(F)F)NC(=O)N(CCc2ccc(OC)c(OC)c2)C1=O (stereo unspecified) -21.6%
COc1cc(OC)cc(-c2cc3nc(C)c(CCC(=O)NCc4ccccc4)c(C)n3n2)c1 -18.4%
O=C(Nc1nnc(S(=O)(=O)N2CCCc3ccccc32)s1)c1ccccc1Cl 3.85%
Cc1ccc(-n2nc(CO)c(C(=O)NC(C)CCCc3ccccc3)n2)cc1 (stereo unspecified) 2.33%
COc1ccc(NC(=O)c2c(NCc3sccc3C)sc3c2CCCC3)c(OC)c1 -10.1%
CCc1nn2c(=O)cc(COC(=O)CNC(=O)COc3ccc(C)cc3)nc2s1 0.216%
CCC(=O)N1CCc2cc(S(=O)(=O)CCC(=O)N3CCN(c4ccc(Cl)cc4)CC3)ccc21 -2.25%
CC(C)CC(NS(=O)(=O)c1ccc2c(c1)oc(=O)n2C)C(=O)NCc1ccccc1Cl (stereo unspecified) -16%
CCCOc1ccc(CN(C(=O)Cc2coc3ccc(CC)cc23)C2CCS(=O)(=O)C2)cc1 (stereo unspecified) -20.9%
Cc1ccc(NC(=O)CN2CCN(S(=O)(=O)c3ccc(C(C)C)cc3)CC2)cc1F -4.33%
COc1ccc(Nc2nc(N)nc(N)c2S(=O)(=O)c2ccccc2)cc1 -6.77%
Cc1cn(C)c(CC(=O)N2CCN(c3cccc(Cl)c3)CC2)c1C(=O)O 3.07%
Cc1ccc(-n2cc(C(=O)Oc3cccc(C)c3)c3ccccc3c2=O)cc1 -7.52%
COc1cccc(NC(=O)CSC2=Nc3ccccc3C3=NC(CCC(=O)NCCc4ccccc4)C(=O)N23)c1 (stereo unspecified) 0.0107%
Cc1cccc(NC(=O)c2ccc3nc(C(C)C)oc3c2)c1C 0%
CCCN(CCC)C(=O)Cn1c(=O)n(-c2ccc(CC)cc2)c(=O)c2ccc(C(=O)NCCc3ccccc3)cc21 -19.3%
CCOC(=O)c1ccc(Nc2nc3ccc(C(=O)c4ccccc4)cc3n3c(C)nnc23)cc1 1.18%
O=c1c2ccccc2n(Cc2ccccc2Cl)c(=O)n1CCc1ccccc1 -6.81%
CCCCCOc1ccc(Cn2c(=O)oc3ccccc32)cc1 -11.7%
COc1cc(Cl)c(NC(=O)CCS(=O)(=O)c2ccc3c(c2)NC(=O)CO3)c(OC)c1 6.31%
CC(C)(C)OC(=O)N1CCC(c2c(C(=O)NC3CCN(Cc4ccccc4)CC3)cnn2-c2ccc(F)cc2F)CC1 0%
COc1ccc(CCNC(=O)c2ccc3c(c2)CCN3S(=O)(=O)c2ccc(C)cc2)cc1 4.21%
COc1ccc(-c2cc(C(=O)NCCc3ccccc3)c3c(-c4ccccc4)[nH]nc3n2)cc1OC 1.38%
Cc1ccc(NC(=O)C2CCCN(S(=O)(=O)c3ccc4c(c3)oc(=O)n4C)C2)cc1Cl (stereo unspecified) 3.05%
CCOc1ccc(NC(=O)C(=O)c2cc(C)n(-c3cc(C)cc(C)c3)c2C)cc1 -3.06%
CCOc1ccc(S(=O)(=O)Nc2cccc(-c3ccc(OCC)nn3)c2)cc1 3.2%
Cc1ccc(/C=C/c2onc(C)c2S(=O)(=O)N2CCC(C(=O)Nc3cc(C)ccc3C)CC2)cc1 5.08%
COc1ccccc1CCNC(=O)C(=O)NCC(c1cccs1)S(=O)(=O)c1cccs1 (stereo unspecified) -13.3%
O=C(Nc1ccc(F)cc1C(F)(F)F)C1CCN(c2ncccn2)CC1 4.18%
COc1ccc(S(=O)(=O)c2cn(C)c3ccc(C)cc3c2=O)cc1 0.788%
Cc1cccc(NC(=O)c2c(C)cc(C)nc2SCC(=O)c2ccccc2)c1 -10.7%
Cc1cc(C)c2oc(C(=O)Nc3ccc(S(=O)(=O)N4CCCCCC4)cc3)cc(=O)c2c1 2.15%
Cc1cccc(NC(=O)COC(=O)CCCC2=NS(=O)(=O)c3ccccc3N2)c1 0.892%
CCOc1ccc(OCC)c(Nc2ccc3cc(S(=O)(=O)N4CCCC4)ccc3n2)c1 2.02%
CCC1CN(C(=O)N2CCC(C(=O)NCc3cccc(OC)c3OC)CC2)c2cc(C)ccc2O1 (stereo unspecified) -11%
COc1ccccc1NC(=O)c1sc2nc(C)c(C(=O)Nc3ccc(C)cc3C)c(-c3ccco3)c2c1N -1.03%
CC(C)c1ccc(NC(=O)c2ccc(F)c(S(=O)(=O)N3CCc4ccccc43)c2)cc1 8.79%
CCC(C)NC(=O)CSc1nc2n[nH]c(C)c2c(=N)n1-c1cc(Cl)ccc1C (stereo unspecified) -11.2%
O=C(C1CCCN(S(=O)(=O)c2cccc3nsnc23)C1)N1CCN(c2ccccc2F)CC1 (stereo unspecified) 1.72%
COc1cccc(-c2noc(C3CC(=O)N(c4ccc(F)cc4)C3)n2)c1OC (stereo unspecified) -15.5%
COc1ccccc1CNC(=O)c1cc2sccc2n1Cc1ccc(Cl)cc1 -2.57%
Cc1ccccc1NC(=O)CSc1nc2ccc(NC(=O)c3cccs3)cc2s1 -9.71%
CCc1ccc(NC(=O)CCn2c(=O)c3cccn3c3ccccc32)cc1 -0.666%
COc1ccc(NC(=O)CSc2ccc3nc(-c4ccccc4)cn3n2)c(OC)c1 -15.3%
Cc1ccc(NC(=O)c2ccc3[nH]c(C)cc(=O)c3c2)cc1 -13.6%
CSc1cccc(NC(=O)c2cccc(N3CCCS3(=O)=O)c2)c1 0%
O=C(Cn1nc(C(F)(F)F)c2c1CCCC2)Nc1ccc(Br)cc1 -2.36%
COc1cccc(CNC(=O)COc2cc(=O)n(C)c3ccccc23)c1 -0.431%
Cc1ccc(-n2nnnc2CNC(=O)c2cc(C(F)(F)F)cc(C(F)(F)F)c2)cc1C -22.1%
COc1ccc(-n2ncc3c(NC4CCCC4)ncnc32)cc1 -18.1%
COc1ccc(S(=O)(=O)Nc2ccc(-c3cn4c(C)csc4n3)cc2)cc1 0%
Cc1ccc(N2CCN(S(=O)(=O)c3cccc4ccccc34)CC2)cc1Cl 4.96%
COc1ccccc1S(=O)(=O)Cc1ccc(C(=O)NCc2ccc(Cl)cc2)o1 -0.879%
O=C(Nc1cccc(C(F)(F)F)c1)c1cc(CN2CCOCC2)on1 -4.18%
CCCCNC(=O)c1ccc2c(c1)ncn2-c1cc(OC)ccc1OC 0%
CCCNc1ccc(-c2nc(-c3ccccn3)no2)cc1[N+](=O)[O-] 8.22%
O=C(Nc1ccccc1F)c1ccc2c(Cl)c3c(nc2c1)CCC3 -0.157%
COC(=O)c1ccc(NC(=O)CCn2cnnn2)cc1 -13%
CCN(CCCNC(=O)c1nn(-c2ccc(OC)cc2)c(=O)c2c1c1ccccc1n2C)c1ccccc1 -1.01%
CCc1cccc(NC(=O)CCNS(=O)(=O)c2cccc3nonc23)c1 0%
